Data on 70 compounds can be found in PubChem BioAssay AID1240 (Sanford-Burnham Center for Chemical Genomics, 2008).

Hit rate of the full screen: of about 50,000 compounds, about 800 (1.6%) showed an effect of 50% or more. Some of the results follow.

This assay concerns the target Bcl-2-like protein 10 (Homo sapiens) (UniProt Q9HD36). The assay can be described thus: TR3 peptide-Bcl-B binding displacers, biochemical primary FP assay, phenotype converters (AID 1240).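 Note: 0% = Bcl-B with tracer peptide and DMSO and 100% = tracer peptide lacking Bcl-B.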 To be noted: GST-Bcl-B / FITC-TR3 peptide fluorescence polarization; stronger effect = higher value; compound at 3.75 mg/L.
UniProt Q9HD36, sequence (Q9HD36 whole entry, looked up): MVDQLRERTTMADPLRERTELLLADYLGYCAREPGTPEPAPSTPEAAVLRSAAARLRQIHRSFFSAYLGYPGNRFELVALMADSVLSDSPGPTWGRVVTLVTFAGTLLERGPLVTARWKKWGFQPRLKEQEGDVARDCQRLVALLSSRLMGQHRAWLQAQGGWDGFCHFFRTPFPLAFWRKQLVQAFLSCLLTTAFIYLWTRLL
Take `CC(NC(=O)CSc1nc2sc3c(c2c(=O)n1-c1ccccc1)CCCC3)c1ccccc1` (stereo not given): the displacement came out at 8.1%.
In the case of `COc1ccc(CNC(=O)C(=O)NCc2ccc(Cl)cc2)cc1` it was 13.2%; in that of `CCOC(=O)COc1cc(Br)c(C2Nc3ccc4ccccc4c3C3=C2C(=O)CC(C)(C)C3)cc1OC` (stereo not given), -8.4%; in that of `O=C(NC(NC(=S)Nc1ccc(Cl)cc1)C(Cl)(Cl)Cl)c1ccccc1F` (stereo not given), 10.3%.
In the case of `O=C(Nc1ccc(Cl)cc1)Nc1ccc(S(=O)(=O)N2CCc3ccccc32)cc1` it was -5.3%.
For `CC(=O)c1ccccc1NC(=O)c1ccccc1Br`, the displacement is -6.8%.
To `O=C(O)C(Cc1ccccc1)N1C(=O)/C(=C/c2ccc(Br)cc2)SC1=S` (stereo not given) belongs 11.6%.
To `CC(=O)c1ccc(Oc2cc(-c3ccccc3)nc(C)n2)cc1` belongs -9.7%; to `Oc1cccc(Nc2nc(-c3ccccn3)cs2)c1`, 7.9%.
To `CCSc1nnc(NC(=O)C(C)(C)C)s1` belongs -5.7%.
For `Cc1ccc(C)c(NC(=O)c2cncc(Br)c2)c1`, the displacement was 9.7%.
To `C=CCN(CC=C)C(=O)COc1ccc(Cl)cc1` belongs -5.1%; to `CC(=O)N(C1=C(N2CCOCC2)C(=O)c2ccccc2C1=O)c1ccccc1`, 2.9%.
As to `COC(=O)c1ccc(N2C(=O)C3C4C=CC(C4=C(c4ccccc4)c4ccccc4)C3C2=O)cc1` (stereo not given), the displacement was 4.4%.
In the case of `O=C(CSc1nc2ccccc2[nH]1)Nc1cc(Cl)ccc1Cl` it was 11.1%.
To `CCOC(=O)c1ccc(NC(=S)NC(=O)c2ccco2)cc1` belongs 12.6%; to `CCOc1ccccc1NC(=O)C(=O)NCc1ccc(Cl)cc1`, 13.1%.
For the compound `COc1ccc(OCC(O)CN(C)S(=O)(=O)O)cc1` (stereo not given), the displacement is -6.7%.
With `O=[N+]([O-])c1cccc(CN2CCN(Cc3cc(Br)ccc3O)CC2)c1`, the displacement turned out to be 3%.
To `Cc1ccc(CC(C)CC(=O)NCc2ccccc2)cc1` (stereo not given) belongs -8.4%; to `COc1cc(SC)ccc1C(=O)n1nnc2ccccc21`, 9.2%.
To `CC(C)COc1ccc(C(=O)Nc2ccc(F)cc2)cc1` belongs -11.6%; to `CC1=NN(C(=O)c2ccc([N+](=O)[O-])cc2)C(O)(c2ccc(Cl)cc2)C1` (stereo not given), 11.9%.
To `Cc1cc(Br)ccc1NCN1C(=O)S/C(=C/c2ccc3c(c2)OCO3)C1=O` belongs 33.3%; to `CCOc1ccc(N2C(=O)NC(=O)/C(=C\c3ccc(OCc4cccc(C(=O)O)c4)cc3)C2=O)cc1`, 12.6%; to `O=C(NC12CC3CC(CC(C3)C1)C2)c1ccccc1I`, 1.7%.
For `O=C1NC(=Nc2ccc(F)cc2)S/C1=C/c1ccccc1F`, the displacement worked out at 11.9%.
In the case of `Nc1nnc(-c2ccccc2SCc2ccccc2)s1` it was -11.3%; in that of `CCOC(=O)c1ccc(-n2c(C)cc(C=C3C(=O)c4ccccc4C3=O)c2C)cc1`, 11.9%.
In the case of `O=C1c2ccccc2C(=O)N1/N=C/c1c(O)ccc2ccccc12` it was 18.6%; in that of `COc1ccccc1N1C(=O)c2ccc(C(=O)c3ccc4c(c3)C(=O)N(c3ccccc3OC)C4=O)cc2C1=O`, -5.3%; in that of `COc1ccc(-c2cc(C(=O)NCCN3CCOCC3)c3ccccc3n2)c(OC)c1`, -0.4%.
To `O=C1C(Nc2ccccc2)=CC(c2ccccc2F)N1c1ccccc1` (stereo not given) belongs 9.5%; to `COc1ccc(S(=O)(=O)Nc2cc(Cl)ccc2C)cc1`, 4.5%; to `COc1ccccc1N1CCN(/N=C/c2cc(Br)ccc2F)CC1`, 12.9%.
`C=CCn1c(N)c(-c2nc3ccccc3[nH]2)sc1=S`: the displacement came to 0.1%.
As for `CCOC(=O)c1c(NC(=O)C(c2ccccc2)c2ccccc2)sc2c1CC(C)(C)OC2`, the displacement is 2.1%.
As for `O=C(NCCO)c1ccc(I)cc1`, the displacement worked out at 7.3%.
On to `Cc1onc(-c2ccccc2)c1C(=O)N1CCN(C)CC1`, for which the displacement came to 13.1%.
Regarding `COc1ccc(C(O)(CNCc2ccccc2)c2ccccc2)cc1` (stereo not given), the displacement is -3.2%.
In the case of `Cc1nc(Nc2nc(-c3ccccc3)cc(=O)[nH]2)nc2c(C)cccc12` it was 13%; in that of `O=C(Nn1c(O)c(/C=C2\C=Nc3ccccc32)sc1=S)c1cccc(O)c1`, -66.2%.
To `COc1cccc(C(=O)Nc2nnc(COc3ccccc3F)s2)c1` belongs -52.4%.
`CCOC(=O)c1c(-c2ccccc2)csc1NC(=O)C1CCCN1S(=O)(=O)c1ccc(Cl)cc1` (stereo not given): the displacement came to 13.7%.
In the case of `CN1C(=O)NC(=O)/C(=C\c2cc(Cl)c(O)c(Cl)c2)C1=O` it was 1.9%; in that of `CCOc1ccccc1N1CCN(C(=O)c2cccc(F)c2)CC1`, -7.9%; in that of `CC(=O)Nc1ccc(NC(=O)c2ccc(N3C(=O)c4ccc(C(=O)Nc5ccc(NC(C)=O)cc5)cc4C3=O)cc2)cc1`, 9.6%.
To `Cc1ccccc1NC(=O)CCN1C(=O)S/C(=C\c2ccccc2)C1=O` belongs -0.4%; to `COc1ccc(C2=NN(CN3C(=O)C(=O)c4cc(Br)ccc43)C(c3ccccc3)C2)cc1` (stereo not given), -6.7%.
To `O=C(NC(=S)Nc1ccc([N+](=O)[O-])cc1)c1ccco1` belongs 8.8%; to `COc1cc2nnc(/C=C/C(C)=O)c(-c3ccc(C)o3)c2cc1OC`, 48%; to `O=C(CSc1ccc(/C=N/NC(=O)c2cccc(F)c2)o1)Nc1ccccc1`, -3%.
On to `COC(=O)c1ccc(CSc2nc3ccccc3[nH]2)cc1`, for which the displacement came to 14.6%.
To `C=CCc1ccccc1OCc1nnc(N)s1` belongs 4.5%.
In the case of `COc1ccccc1NC(=O)/C=C1/c2ccccc2CC(C)(C)N1C` it was -2.1%; in that of `Cc1cccc(-c2nc3sc4c(c3c(=O)o2)CCC4)c1`, 2.8%.
In the case of `CCC(=O)N1CCN(c2cc(N3CCC(C)CC3)c(F)cc2[N+](=O)[O-])CC1` it was 2%.
Regarding `Cc1nc2ccccc2n1CC(=O)c1ccccc1`, the displacement was -8.6%.
In the case of `O=C(Nc1ccc(Br)cc1)c1nn2c(c1Cl)NC(c1ccc(Cl)cc1)CC2C(F)(F)F` (stereo not given), the displacement came to 7.2%.
In the case of `NC(=O)c1ccc(CN2CCC(Cc3ccccc3)CC2)cc1` it was -6.4%; in that of `CCc1ccc(/C(=C2/OC(=O)c3ccccc32)[N+](=O)[O-])cc1`, 13.4%.
Take `Cc1ccc(NC(=O)C2CC(=O)N(c3ccc(C)cc3)C2)cc1` (stereo not given): the displacement was 10.4%.
Consider `O=C(CCC(=O)OCC(F)(F)C(F)F)Nc1nc2ccccc2s1`, for which the displacement amounted to 14.3%.
In the case of `O=S(=O)(Cc1ccccc1)c1nc2ccccc2n1Cc1ccc(Cl)c(Cl)c1` it was -3.7%; in that of `COc1ccc(CN2CCN(C3CCCC3)CC2)c(OC)c1`, -3.4%; in that of `Cc1ccc(/C(O)=C/C(=O)C(=O)O)cc1`, -5.3%.
`CCOC(=O)C(Cc1ccccc1Cl)(NC(C)=O)C(=O)OCC`: the displacement was -7.2%.
In the case of `CCOc1cc(C(=O)N2c3ccc(F)cc3CCC2C)cc(OCC)c1OCC` (stereo not given) it was -8.4%; in that of `COc1ccccc1CNCc1cccc(Oc2ccccc2)c1`, -15.1%; in that of `CCCCNC(=O)NC1C(NC(=O)NCCCC)N(C)C(=O)N1C` (stereo not given), -9.7%.
